Experimental data: PubChem BioAssay AID662 (National Center for Advancing Translational Sciences (NCATS), 2007)
Out of some 71,000 compounds screened, about 1,800 (2.5%) were called active. The inconclusive results got no clear call from the source; some entries with a clear call stand among them for comparison. The call rests on the fitted dose curve; in most records, active means well fitted activation curve with a large enough effect in the signal ratio, with a control signal flat (not every such curve was filed as active); inconclusive means small, poorly fitted or top-dose-only effect, or effect the other way, or a change in a side signal; inactive means flat fitted curve, though single readings scatter; the % refers to the signal ratio. Where the call is inconclusive, the potency comes from a doubtful curve fit.
Potency means the concentration at half of the fitted maximal effect; tags describe the fitted curve by direction and shape.

Assay: Cell signaling CRE-BLA (Fsk stim); on activity change, negative = inhibition: % of control where 0% means no effect
Conditions: CHO CRE-bla reporter (cAMP response element driving beta-lactamase), forskolin EC10, beta-lactamase ratio; activity change, negative = inhibition: at 38.2 µM (top of the series) unless noted
In short: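 Forskolin analogue NKH 477 at EC10 stimulated CRE-driven beta-lactamase in CHO cells alongside compound dilution series. Beta-lactamase was measured with CCF4, excitation 405 nm, emission ratio 460/530 nm.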
For `COC(=O)[C@@]1(Cc2ccc(OC)cc2)[C@H]2c3cc(C(=O)N4CCCC4)n(Cc4cc(F)cc5c4OCOC5)c3C[C@H]2CN1C(=O)c1ccccc1`, the Potency was “inactive”. In the case of `CC(C)c1ccc2c([Si](C)(C)C)c3c(nc2c1)-c1cccc(=O)n1C3`, the Potency was inconclusive: 20 µM [rising, partial curve]. With `CC(C)=CCC/C(C)=C/CO` the activity change, negative = inhibition was inactive: 15.3% [at 7.6 µM]. In the case of `Nc1cccc(-c2nc3ccc(N)cc3s2)c1`, the Potency was inconclusive: 12.6 µM [rising, single point]. For `O=C(O)CCCCCC[C@@H]1C(=O)NC(=O)N1CC[C@@H](O)C1CCCCC1`, the Potency was inconclusive: 7.94 µM [rising, partial curve]. In the case of `CCOC(=O)c1c(N)sc(C(=O)N2CCCCCC2)c1C`, the activity change, negative = inhibition was inconclusive: 25%. For `CCOC(=O)CCCc1sc(N)nc1-c1[nH]c(=O)[nH]c1C`, the Potency was inconclusive: 0.794 µM [falling, partial curve]. For `CC1=C(C)CS(=O)N(S(=O)(=O)c2ccc(Cl)cc2)C1` (stereo not given), the Potency was inconclusive: 12.6 µM [falling, partial curve]. With `O=C(c1cc(S(=O)(=O)N2CCCCC2)ccc1F)N1CCCCC1` the activity change, negative = inhibition was inconclusive: 1.29%. For `COc1cc(-c2ccc(N=C=O)c(OC)c2)ccc1N=C=O`, the Potency was “inactive”. In the case of `CN1/C(=N\O)c2cccc3cccc1c23`, the activity change, negative = inhibition was inconclusive: 26.4%. In the case of `Cc1ccc(-n2c(SCC(=O)NCc3ccco3)nnc2-c2cccnc2)c(C)c1`, the activity change, negative = inhibition was inconclusive: -15.4%. In the case of `CCc1nc(N)nc2c1C(=O)CC(C)(C)C2`, the Potency was inconclusive: 2.51 µM [rising, partial curve]. In the case of `O=C(Nc1ccc(F)cc1)Nc1ccc(Cl)cn1`, the activity change, negative = inhibition was inconclusive: -3.42%. In the case of `CCOC(=O)c1csc(NC(=O)CSc2nnnn2CC)n1`, the Potency was inconclusive: 5.01 µM [rising, single point]. For `O=C(NCc1ccco1)C1OCCc2ccccc21` (stereo not given), the activity change, negative = inhibition was inconclusive: -8.4%. For `CC1CN(CC(=O)N2CCc3[nH]c4ccccc4c3C2)CC(C)O1` (stereo not given), the Potency was inconclusive: 25.1 µM [falling, single point]. With `CSCCC(NC(=O)OC(C)(C)C)C(=O)NC(CC(C)C)C(N)=O` (stereo not given) the Potency was “inactive”. For `O=C(C1CCN(S(=O)(=O)c2cccc3cccnc23)CC1)N1CCN(c2ccc(Cl)cc2)CC1`, the Potency was “inactive”. For `CCCC[C@H]1C[C@@H]1[C@@H]1N(C(C)=O)[C@H](c2cccc(OC)c2)CC12CC2`, the activity change, negative = inhibition was inconclusive: 6.27%. For `Cc1cccc(Cn2c(=O)c3c(nc4n3CCN4Cc3ccco3)n(C)c2=O)c1`, the Potency was inconclusive: 12.6 µM [rising, single point]. For `CCOC(=O)C1CCCN(C(=O)CCCOc2cc(=O)n(C)c3ccccc23)C1` (stereo not given), the Potency was inconclusive: 5.01 µM [rising, partial curve]. In the case of `Cc1ccc(-c2c(C#N)c(N)nc3c2CCCCC3)o1`, the Potency was inconclusive: 3.98 µM [rising, partial curve]. For `COc1ccc(N2CCN(C(=O)CSc3nc4cc(OC)c(OC)cc4cc3C#N)CC2)cc1`, the Potency was active: 10 µM. For `O=C(NCCN1CCN(c2ccccc2)CC1)C1CCN(S(=O)(=O)c2cccs2)CC1`, the activity change, negative = inhibition was inconclusive: 13.7%. In the case of `N=C(N)SCCSC(=N)N`, the activity change, negative = inhibition was inactive: -4.79% [at 7.6 µM]. In the case of `O=C(O)[C@H](Cc1ccccc1)N1C(=O)c2ccccc2C1=O`, the activity change, negative = inhibition was inactive: -1.64% [at 7.6 µM]. With `Nc1[nH]ncc1C(=O)Nc1cccc(C(F)(F)F)c1` the activity change, negative = inhibition was inconclusive: -0.381%. With `CCOC(=O)c1c(NC(=O)CSc2nnc(C)s2)sc2c1CCN(C)C2` the Potency was inconclusive: 12.6 µM [rising, partial curve]. In the case of `O=C(Nc1ccc(F)cc1F)c1cc(-c2ccco2)on1`, the activity change, negative = inhibition was inconclusive: 1.48%. In the case of `CCc1c(C)nc(SCC(=O)Nc2cccc(Br)c2)[nH]c1=O`, the Potency was inconclusive: 7.94 µM [rising, partial curve]. In the case of `O=C1CCCC2=C1C(c1ccccc1O)C1=C(CCCC1=O)O2`, the Potency was “inactive”. With `CCOC(=O)CNS(=O)(=O)c1ccc(S(=O)(=O)N2CCCC2)cc1` the activity change, negative = inhibition was inconclusive: -4.87%. In the case of `CCOC(=O)c1nn(-c2ccccc2)c(=O)c2c(N)scc12`, the Potency was “inactive”. For `COc1ccc(N2CCN(C(=O)c3ccc(C)cc3Cl)CC2)cc1`, the activity change, negative = inhibition was inconclusive: -19.5%. For `COc1ccc(Oc2ncc3nc(-c4ccc(OC)cc4)c(=O)n(CCC#N)c3n2)cc1`, the Potency was inconclusive: 7.94 µM [rising, partial curve]. With `CC(C)c1nc(N2CCN(C(=O)c3ccccc3)CC2)c(C#N)c2c1COC(C)(C)C2` the activity change, negative = inhibition was inconclusive: 8.57%. For `CN(C/C(O)=C(\C#N)c1ccccc1)C1CCCCC1`, the activity change, negative = inhibition was inconclusive: 0.576%. In the case of `O=C(CC1SC(=NC2CCCCC2)NC1=O)Nc1ccccc1` (stereo not given), the activity change, negative = inhibition was inconclusive: -0.0424%. In the case of `CC1=C(C(=O)Nc2ccccc2)C(c2ccc(C)o2)n2c(s/c(=C\c3ccco3)c2=O)=N1` (stereo not given), the activity change, negative = inhibition was inconclusive: 3.72%. In the case of `COC(=O)[C@@]1(Cc2ccccc2)[C@H]2c3cc(C(=O)N4CCCC4)n(CCO)c3C[C@H]2CN1C(=O)c1ccccc1`, the Potency was “inactive”. With `Cc1ccc(Cl)cc1-n1c(=O)cc(N2CCN(C(=O)c3ccco3)CC2)[nH]c1=O` the activity change, negative = inhibition was inconclusive: -18.2%. With `CN(CC(=O)Nc1ccc(Cl)cc1)CC(=O)Nc1cc(Cl)ccc1C#N` the Potency was inconclusive: 10 µM [falling, partial curve]. In the case of `CCOC(=O)CC(=O)CSc1nc(-c2cccnc2)ccc1C#N`, the Potency was active: 10 µM. For `COc1cccc(Nc2ncc3nc(-c4cc(F)cc(F)c4)c(=O)n(CCC#N)c3n2)c1`, the Potency was inconclusive: 12.6 µM [falling, single point]. With `C=CCn1c(SCC(=O)NCc2cccs2)nnc1C1CCCCC1` the Potency was “inactive”. In the case of `CC(C)c1nnc(NC(=O)CC(=O)Nc2ccccc2C(=O)O)s1`, the Potency was “inactive”. For `Nc1nc(NCCc2ccc(O)cc2)nc2nc(-c3ccco3)nn12`, the Potency was “inactive”. With `Cn1cc(C(=O)N2CCN(C(=O)c3ccco3)CC2)c2c3ccccc3n(C)c2c1=O` the activity change, negative = inhibition was inconclusive: 27.9%. For `CCOC(=O)C1=C(c2ccccc2)N2CCS(=O)(=O)N=C2S1`, the activity change, negative = inhibition was inconclusive: 22.3%. With `CCOC(=O)Cn1nnnc1C(C(C)C)N(Cc1cc2c(C)cc(C)cc2[nH]c1=O)C1CCCC1` (stereo not given) the activity change, negative = inhibition was inconclusive: 20.7%. In the case of `O=S(=O)(Cc1ccccc1)N1CCCC1`, the activity change, negative = inhibition was inconclusive: 2.13%. For `Cc1cc(-c2csc(N)n2)c(C)n1CCc1ccccc1`, the Potency was inconclusive: 10 µM [falling, partial curve, poor fit]. For `CCOC(=O)N1CCC(c2[nH][nH]c(=O)c2C)CC1`, the Potency was inconclusive: 2 µM [rising, single point]. With `O=C1CC(N2CCN(c3ccc(C(=O)c4ccc(F)cc4)cc3)CC2)C(=O)N1` (stereo not given) the Potency was “inactive”. In the case of `Cc1c(C(=O)NCCN2CCOCC2)sc2nc(-c3ccc(F)cc3)cn12`, the activity change, negative = inhibition was inconclusive: 20.7%. With `CCc1ccc(NC(=O)Cn2c(=O)n(CCCC(=O)NCc3ccco3)c(=O)c3ccccc32)cc1` the activity change, negative = inhibition was inconclusive: 14.3%. With `Cc1ccc2nc(NCCCN3CCOCC3)c(C=NCCCN3CCOCC3)c(=O)n2c1` the Potency was inconclusive: 10 µM [rising, partial curve]. With `Oc1ccccc1OCc1nc2ccccc2s1` the Potency was inconclusive: 0.0158 µM [falling, full curve, poor fit]. For `Oc1c(CN2CCN(c3ccccn3)CC2)cc(Cl)c2cccnc12`, the Potency was inconclusive: 15.8 µM [falling, partial curve]. For `O=C1CSC(c2cn(-c3ccccc3)nc2-c2cc3ccccc3oc2=O)N1Cc1ccco1` (stereo not given), the Potency was “inactive”. For `O=C(NCC1CCCO1)C(C(=O)c1ccccc1)n1cc(Cl)ccc1=O` (stereo not given), the Potency was inconclusive: 25.1 µM [falling, single point]. For `CCOC(=O)N1CCC(Nc2ncnc3c2cnn3-c2ccc(C)cc2C)CC1`, the activity change, negative = inhibition was inconclusive: -10.2%. With `COc1cccc(NC(=O)N2CCC(C(=O)Nc3ccc(C)cc3C)CC2)c1` the activity change, negative = inhibition was inconclusive: -7.21%. With `COc1cc2c(cc1OC)CN(C(=O)CC1CC3CCC1C3)CC2` (stereo not given) the activity change, negative = inhibition was inconclusive: -6.59%. For `CCn1ccc(C(=O)Nc2ccc(S(=O)(=O)Nc3ccccc3OC)cc2)n1`, the Potency was inconclusive: 25.1 µM [rising, single point]. In the case of `O=C(NCC(=O)N(CCc1ccccc1)C(C(=O)NC1CCCC1)c1cccnc1)c1ccco1` (stereo not given), the activity change, negative = inhibition was inconclusive: -18.4%. In the case of `Cc1cccc(C#Cc2ccccc2)n1`, the activity change, negative = inhibition was inconclusive: -12.8%. For `Cc1cnc(CNc2nc(-c3cccnc3)nc3ccccc23)cn1`, the Potency was active: 12.6 µM. In the case of `COc1ccc(-c2nc(NC(=O)C3CCN(c4nc5ccccc5o4)CC3)sc2C)cc1`, the Potency was inconclusive: 10 µM [falling, single point]. For `Nc1[nH]nc2nc(N3CCOCC3)nc(-c3ccccc3)c12`, the activity change, negative = inhibition was inconclusive: 19.7%. With `S=c1[nH]nc(-c2ccc3ccccc3n2)o1` the Potency was “inactive”. For `CCCc1nc(Nc2nc3ccccc3o2)nc(C)c1C(=O)OCC`, the Potency was “inactive”. For `CCN(CC)S(=O)(=O)c1ccc(NC(=O)c2cccc3c2C(=O)N(CCOC)C3)cc1`, the activity change, negative = inhibition was inconclusive: 12.3%. With `COC(=O)c1[nH]c2ccccc2c1NC(=O)CN1CCCc2ccccc21` the Potency was inconclusive: 25.1 µM [rising, single point]. For `CCN=C(N)CSS(=O)(=O)O`, the activity change, negative = inhibition was inactive: 0.486% [at 7.6 µM]. For `COc1cc(C(=O)NCCc2nc3ccccc3n2C)cc(OC)c1OC`, the Potency was active: 6.31 µM. With `C[C@@](N)(C(=O)O)c1ccc(P(=O)(O)O)cc1` the activity change, negative = inhibition was inconclusive: -7.21%. With `Cn1c2ccccc2c2nnc(SC3CCOC3=O)nc21` (stereo not given) the Potency was inconclusive: 3.16 µM [rising, full curve]. With `COc1ccc(C(=O)Nc2ccccc2-c2nnn(CC(=O)NCc3ccco3)n2)cc1` the activity change, negative = inhibition was inconclusive: 16.8%.
